Among all 310,000 compounds or so, about 14,000 (4.5%) showed an effect of 50% or more. Effects have a minus sign here. The list shows a part of the results.
The molecules below were run against human ether-à-go-go-related gene (hERG) potassium channel (human, UniProt Q12809) (assay: primary screen, population patch clamp on CHO cells stably expressing hERG).
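Further: peak tail current of the secondary pulse compared with the same well before compound.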

Sequence of human ether-à-go-go-related gene (hERG) potassium channel (Q12809 whole entry, looked up): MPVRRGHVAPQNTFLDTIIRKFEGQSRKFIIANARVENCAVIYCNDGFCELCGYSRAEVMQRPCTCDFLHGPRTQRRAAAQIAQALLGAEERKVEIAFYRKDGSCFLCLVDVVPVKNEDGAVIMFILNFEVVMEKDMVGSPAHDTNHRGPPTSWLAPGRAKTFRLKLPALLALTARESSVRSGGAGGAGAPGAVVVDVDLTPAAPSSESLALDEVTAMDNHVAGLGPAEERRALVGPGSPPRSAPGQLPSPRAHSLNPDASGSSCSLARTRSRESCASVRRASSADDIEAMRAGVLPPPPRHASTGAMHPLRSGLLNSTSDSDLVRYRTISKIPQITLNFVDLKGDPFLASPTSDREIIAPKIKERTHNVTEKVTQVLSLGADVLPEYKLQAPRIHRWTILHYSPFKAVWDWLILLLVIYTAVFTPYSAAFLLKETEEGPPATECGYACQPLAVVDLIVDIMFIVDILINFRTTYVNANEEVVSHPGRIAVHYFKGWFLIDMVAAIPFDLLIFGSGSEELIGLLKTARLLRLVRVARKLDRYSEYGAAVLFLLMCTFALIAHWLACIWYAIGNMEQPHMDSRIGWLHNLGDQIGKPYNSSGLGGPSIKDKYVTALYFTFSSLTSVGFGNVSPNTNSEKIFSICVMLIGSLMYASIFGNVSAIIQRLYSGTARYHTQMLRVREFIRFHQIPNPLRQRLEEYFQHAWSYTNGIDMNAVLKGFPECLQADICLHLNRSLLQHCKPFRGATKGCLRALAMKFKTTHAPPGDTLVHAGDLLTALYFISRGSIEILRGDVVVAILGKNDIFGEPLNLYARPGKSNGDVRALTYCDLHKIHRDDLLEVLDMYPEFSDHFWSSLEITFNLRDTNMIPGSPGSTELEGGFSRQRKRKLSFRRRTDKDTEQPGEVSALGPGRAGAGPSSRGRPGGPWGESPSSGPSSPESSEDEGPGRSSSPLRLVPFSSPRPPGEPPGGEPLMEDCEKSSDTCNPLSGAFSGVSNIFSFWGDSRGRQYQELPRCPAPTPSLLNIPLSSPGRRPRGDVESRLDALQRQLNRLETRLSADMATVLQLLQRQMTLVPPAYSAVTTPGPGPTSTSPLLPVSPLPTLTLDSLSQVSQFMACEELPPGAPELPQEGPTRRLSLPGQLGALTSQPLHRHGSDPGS

| Structure (SMILES) | hERG current change (%, negative = inhibition) at 10uM |
| --- | --- |
| Brc1ccc(-c2csc(Nc3nc(-c4ccc(Br)cc4)cs3)n2)cc1 | 15% |
| Cc1cnc(NC(=O)CSc2ccccc2)s1 | 3.88% |
| COc1cccc(Oc2coc3c(CN4CCOCC4)c(O)ccc3c2=O)c1 | -5.65% |
| C=CCn1c(CNc2ccc(C)cc2)nnc1SCC(=O)N/N=C/c1ccc(O)cc1 | -11.4% |
| Cc1ccc(C2CC(C(F)(F)F)n3nc(C(=O)NCc4ccco4)cc3N2)cc1 (stereo not drawn) | 19% |
| COC(=O)c1c(C)[nH]c(C(=O)OCC(=O)NCC(C)C)c1C | 3.37% |
| CS(=O)(=O)Nc1cccc(-c2cn3ccccc3n2)c1 | -3.21% |
| CCO[C@@H]1OC(C(=O)Nc2ccccc2)=C[C@H](C2CC2)[C@H]1CCCO | -10.4% |
| Cc1nc2ccc(NC(=O)CCC3CCCC3)cc2s1 | -21.3% |
| O=C(Nc1ccc2c(c1)C(=O)N(c1ccccc1)C2=O)C1CCCO1 (stereo not drawn) | -15.5% |
| Cc1oc(-c2ccccc2F)nc1CS(=O)(=O)CC(=O)N1CCN(Cc2ccccc2)CC1 | -3.31% |
| COc1cccc(-c2nc(CS(=O)(=O)CC(=O)NCc3ccc4c(c3)OCO4)c(C)o2)c1 | -11.1% |
| Cc1ccc(NC(=O)CN2C(=O)S/C(=C\c3cccn3C)C2=O)cc1 | 1.22% |
| COc1ccc(-c2ccc3c(N)c(C(=O)c4cccc(OC)c4)sc3n2)cc1 | -0.00592% |
| O=C(Cc1ccccc1)Nc1ccc2[nH]ncc2c1 | 21.6% |
| Cc1cccc(OCC(=O)NC2CC(C)(C)NC(C)(C)C2)c1 | -31.1% |
| COc1ccc(OC)c(NC(=O)CCNS(=O)(=O)c2cc(Br)cnc2N)c1 | -14.9% |
| CC(C)=CCC12Oc3cc(O)ccc3C1(O)Oc1cc(O)c([C@H]3C=C(C)CC(c4ccc(O)cc4O)[C@H]3C(=O)c3ccc(O)cc3O)c(O)c1C2=O (stereo partly drawn) | -5.25% |
| O=C(O)/C(=C\c1ccco1)NC(=O)c1ccccc1 | 15.9% |
| CCC1(C)CC2(CCCN(CCC(=O)c3ccccc3)C2)CCO1.Cl (stereo not drawn) | -10.3% |
| COc1ccccc1NC(=O)COc1ccc(/C=N/NC(=O)c2cccnc2)cc1 | 16.6% |
| COCCNC(=O)C1CCCN(c2nn3c(=O)cc(C)nc3s2)C1 (stereo not drawn) | -0.14% |
| O=S(=O)(Nc1ccncc1)c1cc(Cl)ccc1Cl | 17.1% |
| COc1ccc2oc(=O)c(-c3ccccc3C(=O)N3CCOCC3)cc2c1 | -15.8% |
| O=C(c1csc2c1CCCCC2)N1CCC2(CC1)OCCO2 | 9.29% |
| O=C(CN1C(=O)NC2(CCCC2)C1=O)Nc1ccc(C(F)(F)F)cc1 | 7.98% |
| COc1ccc(CN([C@H](C)CO)S(=O)(=O)N(Cc2ccccc2)[C@H](CO)C(C)C)cc1 | -4.22% |

| Structure (SMILES) | hERG current change (%, negative = inhibition) at 10uM |
| --- | --- |
| Cc1ccc(C)n1-c1ccccc1N1CCCCC1 | 10.4% |
| O=C(NC1CC2CCCC(C1)N2C(=O)Nc1ccccc1)c1ccncc1 (stereo not drawn) | 0.052% |
| CC(C)C[C@H]1CN=C(Nc2ccccc2)N1CC1CCCCCC1 | -60.6% |
| CCOC(=O)c1ccc2ncc(C(=O)OCC)c(NCCCN3CCOCC3)c2c1 | -47.3% |
| COc1ccc(-n2nc(C(=O)NCC(=O)Nc3cc(Cl)c(OC)cc3OC)c3ccccc3c2=O)cc1 | 4.89% |
| COc1ccc(CCC(=O)Nc2ccc(Cn3ccnc3)cc2)cc1 | -0.642% |
| COC(=O)c1cc(S(=O)(=O)n2nc(C)cc2C)c(Cl)cc1Cl | 8.81% |
| COc1ccc(C(=O)CCN2CCc3cc(OC)c(OC)cc3C2)cc1.Cl | -69.1% |
| O=C(CCN1C(=O)S/C(=C\c2cccs2)C1=O)Nc1nccs1 | 9.41% |
| Cc1ccc(S(=O)(=O)N2CCCC2C(=O)Oc2ccccc2)cc1 (stereo not drawn) | -4.02% |
| NC(=O)CCC(NS(=O)(=O)c1ccc(Cl)cc1)C(=O)NCc1ccccc1 (stereo not drawn) | -11.5% |
| CCOC(=O)C1=C(N)n2c(s/c(=C\c3ccco3)c2=O)=C(C(=O)OC(C)C)C1c1ccco1 (stereo not drawn) | 3.99% |
| CCCn1c(=O)[nH]c(=O)c2c1nc(-c1ccc(OC)c(Br)c1)n2CCOC | -20.1% |
| S=C(Nc1ccc(Br)cc1)NC1CCN(Cc2ccccc2)CC1 | -33% |
| COc1ccc(NC(=O)CNC(=O)c2ccc([N+](=O)[O-])cc2)cc1 | -13.7% |
| COc1ccc(N(C(=O)CCC(=O)Nc2cc(C)on2)C(C(=O)NC2CCCC2)c2ccco2)cc1 (stereo not drawn) | 5.34% |
| CCOCCn1c(SCc2ccc(C)cc2)nc2c1c(=O)[nH]c(=O)n2C | 14.5% |
| O=C(N/N=C/c1ccc(N2CCOCC2)cc1)C1CC1 | 1.13% |
| Cc1ccc(C)c(-c2nnc(NC(=O)c3ccco3)o2)c1 | -2.48% |
| OC(c1ccccc1)c1cccnc1 (stereo not drawn) | 17.7% |
| CCOC(=O)c1ccc(NC(=O)c2ccc(NC(=O)C3CCCO3)cc2)cc1 (stereo not drawn) | 17% |
| CCOc1ccc2[nH]c(=O)c(CN(CCO)C(=O)c3ccc(Br)cc3)cc2c1 | -3.2% |
| CN(CC(=O)Nc1cccc(F)c1)C(=O)c1cccc2ccccc12 | -2.09% |
| Cc1oc(-c2ccccc2)nc1CS(=O)CC(=O)NC1CCCC1 (stereo not drawn) | 8.65% |
| OC(CNCCC1C=Nc2ccccc21)Cn1c2ccc(Cl)cc2c2cc(Cl)ccc21 (stereo not drawn) | 0.87% |
| CCOc1cc(/C=C2/NC(=O)NC2=O)cc(Br)c1OCc1ccc(C(=O)O)cc1 | 2.95% |
| CC(=O)N/N=C/c1cc(C)n(-c2ccc(Br)cc2)c1C | -19.1% |
